This is one part of the list.
What was measured:
[1] = system: HSkMC (human skeletal muscle cells); experiment: cytotoxicity call (relative viability < 0.9); conditions: 10 µM
[2] = system: HepG2; experiment: cytotoxicity call (relative viability < 0.9); conditions: 10 µM
[3] = system: S. aureus RN4220; experiment: growth inhibition call (relative growth <= 0.2); conditions: 50 µM

Compound | cytotoxicity call [1] | cytotoxicity call [2] | growth inhibition call [3]
O=C(C[C@@H]1CC[C@H](NC(=O)c2ccc(F)cc2)[C@H](CO)O1)NCc1ccncn1 | inactive | inactive | inactive
CN1C(=O)c2cc(NC(=O)C3CCOCC3)ccc2OC[C@H]2O[C@@H](CC(=O)NCc3ccc4c(c3)OCO4)CC[C@H]21 | inactive | inactive | inactive
CC(C)NC(=O)N(C)C[C@@H]1Oc2ccc(NS(=O)(=O)c3ccc(Cl)cc3)cc2C(=O)N([C@@H](C)CO)C[C@H]1C | inactive | inactive | inactive
C=CCOC(=O)[C@H]1[C@@H]2C(=O)O[C@@H](c3ccccc3)[C@@H](c3ccccc3)N2[C@@H](c2ccc(OCCOC(=O)[C@H]3C[C@H]4C(=O)NCC(=O)N4[C@H]3c3ccc(O)cc3)cc2)[C@]12C(=O)Nc1ccccc12 | inactive | inactive | inactive
C[C@@H]1CN([C@H](C)CO)C(=O)c2cc(NS(=O)(=O)c3ccc(Cl)cc3)ccc2O[C@H]1CN(C)Cc1ccc(-c2ccccc2)cc1 | active | inactive | inactive
COc1cccc(CNC(=O)c2cc3c(c(-c4cccc(-c5ccc(C#N)cc5)c4)n2)[C@H](CCO)N([S@@](=O)C(C)(C)C)C3)c1 | inactive | inactive | inactive
C[C@H]1CCCCO[C@H](CN(C)S(=O)(=O)c2ccc(F)cc2)[C@@H](C)CN([C@@H](C)CO)C(=O)c2cc(NC(=O)NC3CCCCC3)ccc2O1 | inactive | inactive | inactive
Cc1noc(C)c1NC(=O)Nc1ccc2c(c1)C(=O)N([C@@H](C)CO)C[C@@H](C)[C@@H](CN(C)S(=O)(=O)c1ccccc1)OCCCC[C@@H](C)O2 | inactive | inactive | inactive
Cc1cc(CC(=O)O)n(C)c1C(=O)c1ccc(Cl)cc1 | inactive | inactive | inactive
Cc1ccc(S(=O)(=O)N(C)C[C@H]2Oc3ccc(NC(=O)Cn4cnnn4)cc3CC(=O)N([C@H](C)CO)C[C@H]2C)cc1 | inactive | inactive | inactive
Nc1ccn([C@H]2C[C@@H](O)[C@@H](CO)O2)c(=O)n1 | inactive | inactive | inactive
COc1ccc(S(=O)(=O)N(C)C[C@@H]2OCCCC[C@@H](C)Oc3ccc(NC(=O)Nc4cccc5ccccc45)cc3C(=O)N([C@H](C)CO)C[C@@H]2C)cc1 | inactive | inactive | inactive
C[C@H](CO)N1C[C@H](C)[C@H](CN(C)S(=O)(=O)c2ccc(C(F)(F)F)cc2)OCc2ccccc2-c2ccccc2C1=O | inactive | inactive | inactive
C[C@@H]1CCCCO[C@H](CN(C)C(=O)CCC(F)(F)F)[C@@H](C)CN([C@H](C)CO)C(=O)c2cc(NC(=O)CCCCCC(=O)Nc3ccccc3N)ccc2O1 | inactive | inactive | inactive
CO[C@@H]1CN(C)C(=O)c2ccc(NC(=O)Nc3c(C)noc3C)cc2OC[C@@H](C)N(C(=O)Nc2cccc(Cl)c2)C[C@H]1C | inactive | inactive | inactive
C[C@H](CO)N1C[C@H](C)[C@H](CN(C)CC2CCCCC2)Oc2c(NS(=O)(=O)c3cn(C)cn3)cccc2C1=O | inactive | inactive | inactive
C[C@@H]1CN([C@H](C)CO)C(=O)c2cc(NS(C)(=O)=O)ccc2O[C@@H]1CN(C)C(=O)NC1CCCCC1 | inactive | inactive | inactive
COc1ccc(S(=O)(=O)Nc2ccc3c(c2)C(=O)N([C@H](C)CO)C[C@H](C)[C@@H](CN(C)C(=O)Nc2ccc(F)cc2)OCCCC[C@H](C)O3)cc1 | inactive | inactive | inactive
C[C@@H]1CN([C@H](C)CO)C(=O)c2cccc(NC(=O)CCCCCC(=O)Nc3ccccc3N)c2O[C@@H]1CN(C)Cc1ccc(C(F)(F)F)cc1 | inactive | inactive | inactive
O=C(O)c1ccccc1-c1ccco1 | inactive | inactive | inactive
Cc1noc(C)c1S(=O)(=O)N(C)C[C@H]1Oc2c(NC(=O)c3cnccn3)cccc2C(=O)N([C@H](C)CO)C[C@H]1C | inactive | inactive | inactive
COc1cccc(S(=O)(=O)N(C)C[C@H]2OCc3cnnn3CCCC(=O)N([C@H](C)CO)C[C@@H]2C)c1 | inactive | inactive | inactive
O=C(C[C@H]1CC[C@@H]2[C@H](COC[C@H](O)CN2C(=O)Nc2cccc(F)c2)O1)NCCCN1CCOCC1 | inactive | inactive | inactive

— the antibiotic and cytotoxicity screens of Wong et al. (2023)
